The source gives no read counts; variants with many changes may rest on few reads.
B1: LINE1-mini (parent)
chain: GGCAGAGCUCAACACAGCGUGGCAAAGUGGCUGUGGCUAGACUGCC

Variants of: B1
Test: self-cleavage, relative activity (ratio to wild type); higher = more cleavage; in vitro, sequencing; the parent is a self-cleaving ribozyme

Variant | self-cleavage
A6C C10A A25G G27C C31A | 0.02
A6C C15U U34G | 0.08
A6C A14G C18U | 0.08
A6C C10G G30C U38A | 0.01
A6G C18G G27U | 0.2
A6G C10U C15U | 0.06
A6C G19C U20G A26G A39C A41U | 0.04
G5U U9G C18G G35A C42A | 0.06
A6G A25C G44U | 0.02
A6G C13A A26U | 0.05
A6C G7C C13U A25G | 0.07
G5U G22C C46G | 0.01
A6C G7U G22A A24U A25U C37U U43G | 0
A6G A16C C23U C42A G44U | 0.02
A6G A12U U28A U32A | 0.04
A6C G19U A24G | 0.28
A6G C8G C18A G40C | 0
A6G C8A G21C A24U C37U | 0.03
A6C U9C C13A G17A G27U U28C C31U | 0.02
G5U U20A C46A | 0.04
A6C C18U G22C | 0.99
A6C G21A U32G | 0
A6C C10A C23A G35U A39U | 0
A6G C10U A16U U32A | 0.02

Variant | self-cleavage
A6C G27U C31G C45A C46G | 0
A6G C13U U34C | 0.04
A6G A24G G27U G36C C37A | 0.12
A6C U9C C15A G22C A25G | 0.01
A6G A12C G21U G35U | 0.02
A6C C13U G44A | 0.09
A6G C15A G27A | 0.22
A6C C13A C23U U38G | 0.07
A6C A11U G17A C18U G22U U28C G29U | 0.02
A6C A14C C37G U43A | 0.11
A6G C10A G19U G35A | 0.02
A6C C10U C23A | 0.13
G5U G40U C42G | 0.06
A6C A11C A26U G27C C42U | 0.01
A6C A12C A16C C42U | 0.12
A6C G7C U9C A16G G17U | 0.04
G5U U9G C18G G29A G40U | 0.02
A6G C10A A41G | 0.01
G5U G27U C42U | 0.09
A6C A16G A26G C37U C45A | 0.02
G5U U32C G35A G36A | 0.03
G5U G33C G36A U38C | 0
A6C G30U C31A A39G | 0.06
A6C A24U U28C U34C G35C | 0.01

Variant | self-cleavage
A6C G21C C46A | 0.84
A6C U20G C23U G29U | 0.4
A6C A11C A24G | 0.01
A6C G22A C37A A39C | 0.02
A6C U9A C18G G40A | 0.05
G5U U9C C10U A11G G29U G33U | 0.02
A6C C8G U43G | 0
A6G A11U A25C | 0.01
A6C C15U U38A | 0.21
A6G A12C A24G C31U G35U | 0.02
A6C A16C G40C | 0.06
A6G A14U C45G | 0.11
A6C G7U A11G C13A G27A A39G | 0.01
A6G C15U G36C | 0.02
A6G C15U G36U | 0.06
A6C C15A G19C | 0.19
A6C G21U A25C | 0.07
A6C U9C A11C | 0.05
A6G C15U C23G | 0.11
A6C A12U U34G G36U G40A | 0.01
G5U G27A G33U G44A | 0.06
A6C G30C G33A C42G | 0.04
A6C C15A U28A G29A G30U | 0.04
G5U U43C C46A | 0.03

Variant | self-cleavage
G5U U34C G36A | 0.03
G5U U9C G27C | 0.03
G5U U9C G27U | 0.04
A6C C23G G44A | 0.19
A6C A39G C42A | 0.08
A6C G33U U38C | 0.08
G5U U9A C42A | 0.04
A6G C15A A16G U20A | 0.01
G5U U38A C46A | 0.19
A6C G7C C10U A11G G22C | 0.01
A6G C10A G17A | 0.01
G5U G27C G30U C46U | 0.03
A6C G21A C31A U34C A39G | 0.13
A6C C15A A26U | 0.03
A6G C10A C18U G30A | 0.04
A6G A24U A26U G27C C31G | 0.05
A6G C13A U20G G27A C31G | 0.02
A6G A12C G17U G36U | 0.07
G5U G33C G35C | 0.04
G5U G29A G36U | 0.04
G5U G35A C37U | 0.02
A6G A24C G40U G44C | 0.02
A6C A24C U28C G36C C46A | 0.02
A6C C31U U34C G40A | 0.03

Variant | self-cleavage
A6C C15U U34A G36U C42G | 0.02
A6G C10A G22A C45A | 0
A6C C15A U38A | 0.05
A6C G17C G22C | 0.17
A6G A14G A16C C37A C46U | 0.06
G5U U20A U43G | 0.02
A6C A11G C31U G40U | 0.05
A6C A16C C23U | 0.04
A6G A14G A41U G44U | 0.06
A6C A24G G30C C31G C42A | 0.04
A6C C8U C10U C18U G27U | 0.04
G5U U9G A11C A25C | 0
A6C C10G G36C U38C A39C | 0.01
A6C A14G C37G | 0.03
G5U G29A C42A | 0.31
A6C A24U G29C A39G | 0.05
A6C A16G U20A G27U G29A U43A | 0.08
G5U G22A C42U | 0.12
A6C A14G G21C C31U | 0.03
A6C C18U C45U | 1.22
A6G C18G G19A | 0.07
G5U U9G C18A G29U U38G | 0.25
A6C A12C G29U G33A G40U | 0.01
A6C G22U C31U U32G | 0.09

Variant | self-cleavage
A6C U9A C42U U43G | 0.12
G5U U38A G40U | 0.08
G5U U32G C46A | 0.04
A6C U34C U43A | 0.06
A6C G17C U32A | 0.03
A6C U9A C31G U34C | 0
A6C C23G G35U | 0.07
G5U U9A C10A | 0.05
A6C C13U A26C | 0.68
A6C G19C C23U | 0.4
A6C C13G C15A C23A | 0.03
A6C C42G C46A | 0.03
A6C A24C A25G G33A | 0.07
A6C G30C G35A C45U | 0.05
A6C C10A A12C A16C | 0
A6G A26G C42A | 0.05
G5U U9C G22U G27A | 0.01
A6G A14G C18U U20C | 0.12
A6G C15U C46U | 0.15
A6G C13A U32A C45G | 0.05
A6C G19U G21U U34G A41U C42A | 0.23
G5U U9C C46A | 0.02
A6G C10U C23G G30U | 0.02
A6G C13G G19U G35C C46U | 0.16

Variant | self-cleavage
A6G A14G C37A | 0.1
A6C C8G A16C G40C | 0.07
A6C C8A U28G A39G | 0.05
G5U U9A A16C C31U | 0.04
A6C C15U U20A G22A C23A C42U | 0.08
A6C G35A C46A | 0.36
A6C A11G G29U | 0.03
A6C C13G G17U G35U | 0.06
A6G C13U G17U | 0.18
A6C A14G G36U A41U | 0.04
A6C G7A A11C A14G G35U A41G | 0.02
A6C U20G G30C U32G | 0.09
A6G C10U A11G G17A | 0.01
A6C C10U G40U | 0.06
A6G C8A C18A G19A G36C G44C | 0.02
G5U U34A U38G | 0.01
A6G C13U C15G G44A | 0.01
A6C C10A U20C | 0.02
A6C U9A G19U A26C | 0.04
A6C A14U G35U | 0.23
A6G A14G G22C A24U G27C | 0.02
A6G A12G A39U G40A | 0.03
A6C C8U A11C G22C | 0.03

Source: the RNAGym collection of RNA variant scans (doi:10.7554/elife.90254)
